Data reported in patent publication US11912737B2, “19-nor neuroactive steroids and methods of use thereof” (Sage Therapeutics, Inc., priority 2013, dated 2024).
At least one structure is not confirmed: it was looked up by name or label, or the drawing left a doubt.

Target: [35S]-TBPS binding, rat brain cortical membranes
Assay: Steroid inhibition of [35S]-TBPS binding
Conditions: 3 nM [35S]-TBPS, in the presence of 5 μM GABA
Procedure: Steroid Inhibition of TBPS Binding
[35S]-t-Butylbicylophorothionate (TBPS) binding assays using rat brain cortical membranes in the presence of 5 μM GABA has been described (Gee et al, J. Pharmacol. Exp. Ther. 1987, 241, 346-353; Hawkinson et al, Mol. Pharmacol. 1994, 46, 977-985; Lewin, A. H et al., Mol. Pharmacol. 1989, 35, 189-194).
Briefly, cortices are rapidly removed following decapitation of carbon dioxide-anesthetized Sprague-Dawley rats (200-250 g). The cortices are homogenized in 10 volumes of ice-cold 0.32 M sucrose using a glass/teflon homogenizer and centrifuged at 1500×g for 10 min at 4° C. The resultant supernatants are centrifuged at 10,000×g for 20 min at 4° C. to obtain the P2 pellets. The P2 pellets are resuspended in 200 mM NaCl/50 mM Na—K phosphate pH 7.4 buffer and centrifuged at 10,000×g for 10 min at 4° C. This washing procedure is repeated twice and the pellets are resuspended in 10 volumes of buffer. Aliquots (100 μL) of the membrane suspensions are incubated with 3 nM [^35S]-TBPS and 5 μL aliquots of test drug dissolved in dimethyl sulfoxide (DMSO) (final 0.5%) in the presence of 5 μM GABA. The incubation is brought to a final volume of 1.0 mL with buffer. Nonspecific binding is determined in the presence of 2 μM unlabeled TBPS and ranged from 15 to 25%. Following a 90 min incubation at room temp, the assays are terminated by filtration through glass fiber filters (Schleicher and Schuell No. 32) using a cell harvester (Brandel) and rinsed three times with ice-cold buffer. Filter bound radioactivity is measured by liquid scintillation spectrometry. Non-linear curve fitting of the overall data for each drug averaged for each concentration is done using Prism (GraphPad).
Various compounds are or can be screened to determine their potential as modulators of [^355]-TBPS binding in vitro. These assays are or can be performed in accordance with the above discussed procedures.

Structure (SMILES) | IC50
CC[C@@]1(O)CC[C@H]2[C@H](CC[C@@H]3[C@@H]2CC[C@]2(C)[C@@H](C(=O)CN4CCOCC4)CC[C@@H]32)C1 [Entry 47] | ≥ 500 nM
C[C@@]1(O)CC[C@@H]2[C@H]3CC[C@]4(C)[C@@H](C(=O)CN5CCN(S(C)(=O)=O)CC5)CC[C@H]4[C@@H]3C[C@@H](F)[C@@H]2C1 [Entry 26] | ≥ 500 nM
C[C@@H]1CN(CC(=O)[C@H]2CC[C@H]3[C@@H]4CC[C@@H]5C[C@](C)(O)CC[C@@H]5[C@H]4CC[C@]23C)CCO1 [Entry 10] | 50 to 100 nM
C[C@]12CC[C@H]3[C@@H](CC[C@@H]4C[C@@](O)(CF)CC[C@@H]43)[C@@H]1CC[C@@H]2C(=O)CN1CCN(S(C)(=O)=O)CC1 [Entry 27] | 100 to 500 nM
C[C@@H]1CCN(CC(=O)[C@H]2CC[C@H]3[C@@H]4CC[C@@H]5C[C@](C)(O)CC[C@@H]5[C@H]4CC[C@]23C)C1 [Entry 32] | ≥ 500 nM
C[C@@]1(O)CC[C@H]2[C@H](CC[C@@H]3[C@@H]2CC[C@]2(C)[C@@H](C(=O)CN4CCC(O)CC4)CC[C@@H]32)C1 [Entry 3] | ≥ 500 nM
CCO[C@H]1C[C@H]2[C@@H](CC[C@@H]3[C@@H]2CC[C@]2(C)[C@@H](C(=O)CN4CCOCC4)CC[C@@H]32)C[C@]1(C)O [Entry 45] | ≥ 500 nM
CNC(=O)N1CCN(CC(=O)[C@H]2CC[C@H]3[C@@H]4CC[C@@H]5C[C@](C)(O)CC[C@@H]5[C@H]4CC[C@]23C)CC1 [Entry 8] | 100 to 500 nM
C[C@@]1(O)CC[C@H]2[C@H](CC[C@@H]3[C@@H]2CC[C@]2(C)[C@@H](C(=O)CN4CCCC(O)C4)CC[C@@H]32)C1 (stereo partly drawn) [Entry 6] | 100 to 500 nM
CCOC[C@@]1(O)CC[C@H]2[C@@H](CC[C@@H]3[C@@H]2CC[C@]2(C)[C@@H](C(=O)CN4CCOCC4)CC[C@@H]32)C1 [Entry 50] | ≥ 500 nM
CN1CCN(CC(=O)[C@H]2CC[C@H]3[C@@H]4CC[C@@H]5C[C@](C)(O)CC[C@@H]5[C@H]4CC[C@]23C)CC1 [Entry 2] | ≥ 500 nM
C[C@@]1(O)CC[C@H]2[C@H](CC[C@@H]3[C@@H]2CC[C@]2(C)[C@@H](C(=O)CN4CCN(S(C)(=O)=O)CC4)CC[C@@H]32)C1 [Entry 7] | 10 to 50 nM
CCCN1CCN(CC(=O)[C@H]2CC[C@H]3[C@@H]4CC[C@@H]5C[C@](C)(O)CC[C@@H]5[C@H]4CC[C@]23C)CC1 [Entry 9] | ≥ 500 nM
C[C@@]1(O)CC[C@H]2[C@@H](CC[C@@H]3[C@@H]2CC[C@]2(C)[C@@H](C(=O)CN4CCC(O)C4)CC[C@@H]32)C1 (stereo partly drawn) [Entry 17] | ≥ 500 nM
CCOC[C@@]1(O)CC[C@H]2[C@@H](CC[C@@H]3[C@@H]2CC[C@]2(C)[C@@H](C(=O)CN4CCN(S(C)(=O)=O)CC4)CC[C@@H]32)C1 [Entry 34] | ≥ 500 nM
